One block for each binder: values may come before it.
Columns and labels:
[1] = molecular target: T1, recombinant human CD40L (Peprotech, Catalog #310-02) (human, UniProt P29965 113-261); assay: CD40L antigen binding ELISA normalised to IgG sandwich ELISA, COS supernatants
T1 construct: Bought reagent; also called rCD40L; immobilized CD40L
T1 sequence (looked up): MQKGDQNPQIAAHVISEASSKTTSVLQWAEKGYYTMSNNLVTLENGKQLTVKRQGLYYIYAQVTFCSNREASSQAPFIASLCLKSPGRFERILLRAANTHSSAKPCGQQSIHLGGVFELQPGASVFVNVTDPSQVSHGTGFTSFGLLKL
Procedure: (§1) Coated plates were washed twice in wash buffer: (PBS/0.05% Tween-20/0.01% Kathon), and blocked overnight at 4° C. in 200 ul/well PBS/2.5% BSA. Blocked plates were washed three times in wash buffer, and serial dilutions of each culture supernatant in (D-PBS, 0.2% BSA) added to successive wells in each plate: (20×, 40×, 80×, and 160× of each supernatant). Supernatant dilutions were incubated overnight at 4° C. Plates were washed three times in wash buffer, then incubated with HRP (horseradish peroxidase) conjugated goat anti-human IgG (Fc specific) (Catalog #109-036-008, Jackson Immunoresearch, West Grove, Pa.) at a 1:7,500 dilution in PBS for 1-2 hours at room temperature. Plates were washed 4-5 times in wash buffer, then 80 ul/well TMB Sureblue peroxidase substrate was added (Catalog #52-00-02, KPL Laboratories, Gaithersburg, Md.). Color was allowed to develop for 5-15 minutes, and reactions stopped by addition of 80 ul/well 1 N HCL. Plates were read using a Biotek SYNERGY® 2 (Biotek Instruments, Winooski, Vt.) plate reader at […], and data analyzed with Gen5 v2 software.

[2] = molecular target: T2, human CD40 ligand (CD40L, CD154) expressed on human Jurkat cells (human, UniProt P29965 1-261); assay: flow cytometry, COS supernatants on Jurkat cells, AF647 goat anti-human IgG detection
T2 construct: whole, on cells; also called CD40L on Jurkat cells; CD154 (CD40L) expressed on the surface of Jurkat cells
T2 sequence (looked up): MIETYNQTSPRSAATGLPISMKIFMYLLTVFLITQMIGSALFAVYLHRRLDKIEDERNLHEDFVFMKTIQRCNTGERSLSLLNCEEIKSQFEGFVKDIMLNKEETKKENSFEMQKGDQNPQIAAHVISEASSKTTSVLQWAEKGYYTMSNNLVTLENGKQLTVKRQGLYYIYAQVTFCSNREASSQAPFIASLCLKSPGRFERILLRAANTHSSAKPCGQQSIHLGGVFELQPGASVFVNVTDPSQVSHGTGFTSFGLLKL

[3] = molecular target: T1, recombinant human CD40L (Peprotech, …); assay: CD40L antigen binding ELISA, COS supernatants (FIG. 29)
Procedure: as §1

- binding result [1]: binds
- binding result [2]: binds
B1: CD40 EC-Ig fusion protein, mutant E64Y (Fc fusion)
chain: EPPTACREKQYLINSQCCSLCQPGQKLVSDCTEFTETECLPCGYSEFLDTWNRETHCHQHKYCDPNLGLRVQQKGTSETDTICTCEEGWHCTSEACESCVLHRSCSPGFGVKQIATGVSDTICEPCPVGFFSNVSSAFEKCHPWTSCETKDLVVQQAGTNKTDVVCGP
notes: COS7 culture supernatant; not shown: human IgG Fc tail

- binding result [1]: binds
B3: CD40 EC-Ig fusion protein, mutant T112S (Fc fusion)
chain: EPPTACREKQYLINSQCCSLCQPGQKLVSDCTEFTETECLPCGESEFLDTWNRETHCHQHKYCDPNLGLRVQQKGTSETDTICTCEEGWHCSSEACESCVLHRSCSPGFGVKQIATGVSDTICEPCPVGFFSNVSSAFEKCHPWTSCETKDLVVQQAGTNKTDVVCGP
notes: as for B1

- binding result [1]: binds
B5: CD40 EC-Ig fusion protein, mutant T112Y (Fc fusion)
chain: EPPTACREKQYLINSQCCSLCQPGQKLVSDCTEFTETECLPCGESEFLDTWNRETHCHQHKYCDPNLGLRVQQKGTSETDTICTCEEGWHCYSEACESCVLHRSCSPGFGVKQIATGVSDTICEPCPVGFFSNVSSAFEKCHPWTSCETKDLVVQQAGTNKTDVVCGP
notes: as for B1

The remaining lines, values behind:

B2: CD40 EC-Ig fusion protein, mutant E114N E117Q (Fc fusion)
chain: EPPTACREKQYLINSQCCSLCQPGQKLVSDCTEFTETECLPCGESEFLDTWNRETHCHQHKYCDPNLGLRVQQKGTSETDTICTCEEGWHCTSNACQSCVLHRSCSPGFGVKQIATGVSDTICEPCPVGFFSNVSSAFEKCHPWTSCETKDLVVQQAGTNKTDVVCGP
notes: COS7 culture supernatant; also called E114N E117Q double substitution mutant; not shown: human IgG Fc tail
- binding result [3]: binds

B4: CD40 EC-Ig fusion protein, mutant E64Y E66T (Fc fusion)
chain: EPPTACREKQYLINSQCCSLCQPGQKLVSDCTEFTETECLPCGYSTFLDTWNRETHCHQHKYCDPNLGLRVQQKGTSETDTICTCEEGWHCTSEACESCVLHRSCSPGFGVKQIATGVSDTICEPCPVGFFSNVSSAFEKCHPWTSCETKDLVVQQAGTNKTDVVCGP
notes: COS7 culture supernatant; also called E64Y E66T double substitution mutant; not shown: human IgG Fc tail
- binding result [1]: binds

B6: CD40 EC-Ig fusion protein, mutant E64S (Fc fusion)
chain: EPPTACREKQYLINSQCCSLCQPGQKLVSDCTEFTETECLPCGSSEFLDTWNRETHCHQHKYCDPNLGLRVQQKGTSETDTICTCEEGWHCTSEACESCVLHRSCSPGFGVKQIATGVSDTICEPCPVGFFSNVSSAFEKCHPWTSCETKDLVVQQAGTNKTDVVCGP
notes: as for B1
- binding result [2]: binds

Reference: US20140120091A1 (University of Washington, published 2014)
